Data reported in PubChem BioAssay AID360 (National Center for Advancing Translational Sciences (NCATS), 2006).
Out of some 48,000 compounds screened, about 550 (1.1%) were called active. Roughly 4% stayed inconclusive and do not appear here. Rule as the data show it: active = potency below about 15 µM; inconclusive = mostly about 16 µM to 33 µM; inactive = weaker than that. The list shows a part of the results.

Each molecule was assayed against Lysosomal acid glucosylceramidase (Homo sapiens) (UniProt P04062) (assay: Glucocerebrosidase). Conditions: purified enzyme, resorufin glucoside fluorescence (screen aimed at inhibitors), 20 min; series mostly up to 77 µM.
How it was run: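 Wild-type enzyme at 0.2 nM final in 50mM citric acid/KH2PO4, 10mM sodium taurocholate, 0.01% tween-20, pH 5.9, with resorufin beta-D-glucopyranoside at 30 uM final. Compounds titrated, 20 min at RT, red fluorescence read; AC50 from titration.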
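Also: the screen sought inhibitors.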
Potency is read from the fitted curve at half-maximal effect.

Sequence of UniProt P04062 (P04062 whole entry, looked up): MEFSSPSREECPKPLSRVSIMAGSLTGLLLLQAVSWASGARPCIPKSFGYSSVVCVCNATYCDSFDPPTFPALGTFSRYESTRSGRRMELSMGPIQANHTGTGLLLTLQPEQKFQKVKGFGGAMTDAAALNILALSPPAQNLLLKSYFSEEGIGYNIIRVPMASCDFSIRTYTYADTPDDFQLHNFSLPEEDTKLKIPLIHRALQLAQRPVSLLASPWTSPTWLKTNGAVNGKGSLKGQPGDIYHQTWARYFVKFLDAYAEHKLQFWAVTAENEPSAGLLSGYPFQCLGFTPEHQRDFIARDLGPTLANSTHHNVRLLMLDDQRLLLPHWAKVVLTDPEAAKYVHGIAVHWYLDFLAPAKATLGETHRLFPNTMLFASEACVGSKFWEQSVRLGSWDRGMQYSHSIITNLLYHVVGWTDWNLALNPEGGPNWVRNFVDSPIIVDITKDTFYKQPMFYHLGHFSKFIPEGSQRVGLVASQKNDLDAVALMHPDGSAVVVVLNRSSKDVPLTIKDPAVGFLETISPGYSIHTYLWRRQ

Potency, inactive:
O=C(NCc1nc2ccccc2[nH]1)c1cc2ccccc2oc1=O > 76.9 µM
COC(=O)c1ccc(C2c3c(oc4ccc(F)cc4c3=O)C(=O)N2CCO)cc1 (stereo unspecified) > 76.9 µM
CCOC(=O)c1cnc(SC2CCc3ccccc3C2=O)nc1N (stereo unspecified) > 76.9 µM
CC1(C)CC(C#N)(N2CCOCC2)CCO1 (stereo unspecified) > 76.9 µM
CCc1ccc2oc(-c3cc(N)ccc3O)nc2c1 > 76.9 µM
O=C(NCc1ccccn1)c1ccc2nc(-c3ccco3)c(-c3ccco3)nc2c1 > 76.9 µM
CCOc1ccc(CNc2ccc3c(c2)ncn3C)cc1 > 76.9 µM
Cc1nc2ncnn2c(Nc2ccc3c(c2)OCO3)c1Cc1ccccc1 > 76.9 µM
O=C(c1ccco1)N1CCN(C(=O)c2cc3sccc3n2Cc2ccccc2)CC1 > 76.9 µM
CCN1C(=O)c2cccc3c(NC(=O)c4cccc(N5C(=O)CCC5=O)c4)ccc1c23 > 76.9 µM
CCOC(=O)c1c(C)[nH]c2cc(Br)c(O)cc12 > 76.9 µM
COCCN(CC(=O)NC1CCCCC1)C(=O)CSc1nc2ccccc2o1 > 76.9 µM
Cc1onc(-c2c(F)cccc2Cl)c1C(=O)N1CCc2ccccc2C1 > 76.9 µM
CCOC(=O)CSc1nc(N)c(C#N)c(-c2ccc(OCC)cc2)c1C#N > 76.9 µM
O=C(O)CCC(=O)N1CCc2cc(S(=O)(=O)NC3CCCc4ccccc43)ccc21 (stereo unspecified) > 76.9 µM
COc1ccc(CN2CCC(CNC(=O)NC3CCCCC3)CC2)cc1 > 76.9 µM
CC(C)(/C=N/O)/[N+]([O-])=C/c1ccccc1C(F)(F)F > 76.9 µM
CCOC(=O)c1oc2ccccc2c1CN1CCOCC1 > 76.9 µM
COCCN1C(=O)c2ccccc2C(C(=O)NCCCN2CCCC2=O)C1c1c[nH]c2ccccc12 (stereo unspecified) > 76.9 µM
C=CCn1c(COc2ccccc2)nnc1SCC(=O)C(C)(C)C > 76.9 µM
CCc1c(C)sc(NC(=O)OC)c1C(=O)N1CCCCC1 > 76.9 µM
O=C(NCCc1ccccn1)C1CCCN(S(=O)(=O)Cc2ccccc2)C1 (stereo unspecified) > 76.9 µM
Cn1c(=O)cc(OCCCC(=O)N2CCCCC2)c2ccccc21 > 76.9 µM
CCCCC(=O)Nc1ccc(NC(=O)c2ccc3c(c2)OCO3)cc1OC > 76.9 µM
COc1ccc(C(C)=O)cc1COC(=O)c1ccc(S(=O)(=O)N2CCOCC2)cc1 > 76.9 µM
Cc1cc(C(=O)N2CCN(C(c3ccccc3)c3ccccc3)CC2)no1 > 76.9 µM
C=CCn1c(C)cc(C(=O)COc2nncc3ccccc23)c1C > 76.9 µM
CC(C)c1ccc(NC(=O)c2csnn2)cc1
COc1ccc(S(=O)(=O)N[C@@H](Cc2ccccc2)C(=O)N2CC[C@@]3(O)CCCC[C@H]3C2)cc1 > 76.9 µM
COc1cccc(C2C(C(=O)Nc3ccc(C)cc3C)=C(C)Nc3ncnn32)c1OC (stereo unspecified) > 76.9 µM
N#C/C(=C(/O)CN1CCOCC1)c1nc(-c2ccccc2)cs1 > 76.9 µM
C=CCN1C(=O)CS/C1=C(\C#N)S(=O)(=O)c1ccc(C)cc1 > 76.9 µM
COc1cc(OC)c(-c2nnc(-c3ccc(OC)c(OC)c3OC)o2)cc1OC > 76.9 µM
C=CCOC(=O)C1=C(C)Nc2nnnn2C1c1cc(OC)ccc1OC (stereo unspecified) > 76.9 µM
CN1CCN(C(=O)NC2CCCN2S(=O)(=O)c2ccc(Cl)cc2)CC1 (stereo unspecified) > 76.9 µM
Cc1cc(C)n(CCOC(=O)c2sc3ccccc3c2Cl)n1 > 15.4 µM
O=C(Cn1cnc2c(nnn2-c2ccc(F)cc2)c1=O)N1CCCC1 > 76.9 µM
CCNC(=O)C1CC(=O)N(Cc2ccc3c(c2)OCO3)C(=Nc2ccc(OCC)cc2)S1 (stereo unspecified) > 76.9 µM
COCCCn1c(=S)[nH]c2ncccc2c1=O > 76.9 µM
CN(C)c1cc(O)c(C(=S)Nc2ccccc2)c(N(C)C)c1 > 76.9 µM
Cc1ccc(C)c(S(=O)(=O)C(C#N)c2nc3ccccc3nc2N2CCCC2)c1 (stereo unspecified)
CC12C=CC3(CN(Cc4ccccc4)C(=O)C3C1C(=O)NC1CC1)O2 (stereo unspecified) > 76.9 µM
COC(=O)c1ccccc1NC(=O)C1CCCN(S(=O)(=O)c2ccc(OC)cc2)C1 (stereo unspecified) > 76.9 µM
O=C(CSc1nnc(COc2ccccc2)o1)NCCc1ccccc1 > 76.9 µM
CCOC(=O)c1c(NC(=O)c2nn(CC)cc2Br)c(C#N)nn1-c1ccccc1 > 76.9 µM
COCCn1c(C(C)C)nc2oc3ccccc3c(=O)c2c1=O > 76.9 µM
CC(C)CCn1c(SCC(=O)c2ccccc2)nc2c1c(=O)[nH]c(=O)n2C > 76.9 µM
COc1cc(OC)c(C(=O)Nc2ncn[nH]2)cc1OC > 76.9 µM
S=C1SCN(Cc2ccccn2)CN1Cc1ccco1 > 76.9 µM
COC(=O)c1nnn(-c2ccccc2)c1N > 76.9 µM
CCOC(=O)c1c(N)sc2c1CCS(=O)(=O)C2 > 76.9 µM
O=C(CCCN1Cc2ccccc2C1)c1ccc(F)cc1 > 76.9 µM
CCCc1nc2oc3c(N4CCNCC4)ncnc3c2c2c1CCCC2 > 76.9 µM
Cc1c(-c2nc(N)nc(Nc3ccccc3)n2)oc2ccccc12
Cc1cc(N2CCC(C)CC2)n2nc(C)c(-c3ccccc3)c2n1 > 76.9 µM
CC(C)C(=O)Nc1ccccc1N1CCN(C(=O)c2ccccc2)CC1 > 76.9 µM
CCc1nnc(N2CCN(c3ncnc4c3oc3ccccc34)CC2)s1 > 76.9 µM
CC(C)C(NC(=O)C1CCCCC1)C(=O)Nc1ccncc1 (stereo unspecified) > 76.9 µM
O=C(Nc1ccc(CN2CCOCC2)cc1)c1cc2ccccc2o1 > 76.9 µM
CN(C)c1nc(N)nc(/C(C#N)=C/C2CC3C=CC2C3)n1 (stereo unspecified) > 76.9 µM
CCOc1ccc(OCC)c2sc(C)nc12 > 76.9 µM
CCC(=O)N1CN(S(=O)(=O)c2ccc(C)cc2)CC1C (stereo unspecified) > 76.9 µM
CC(=O)N(C(C)=O)c1c(C#N)c(C)n(-c2ccccc2)c1C(=O)c1ccccc1 > 76.9 µM
CC(C)n1c(=O)[nH]c2ccccc21 > 76.9 µM
CCN(CC)S(=O)(=O)c1ccc(-c2nnc(SCC(=O)Nc3nc(C)cs3)o2)cc1 > 76.9 µM
COc1ccc(NC2C=CS(=O)(=O)C2)c(OC)c1 (stereo unspecified) > 76.9 µM
O=C(O)CCCCCNC(=O)CCn1nnc2ccccc2c1=O > 76.9 µM
COc1ccccc1Nc1nc(C2(C)CCC(=O)O2)cs1 (stereo unspecified) > 76.9 µM
CN(C)C(=O)N1CCN(C(=O)c2ccccc2Sc2ccccc2C#N)CC1 > 76.9 µM
COc1ccc(NCc2nnc(SCC(=O)N3CCCc4ccccc43)n2C)cc1 > 76.9 µM
Cc1ccc(C(=O)Nc2ccccc2N2CCN(C(=O)C(C)C)CC2)cc1C > 76.9 µM
Cc1cccc2sc(NC(=O)C3CCCO3)nc12 (stereo unspecified) > 76.9 µM
CCc1ccccc1NC1=NCC(=O)N1C1CCCCC1 > 76.9 µM
O=C(O)CCn1c(=O)sc2ccccc21 > 76.9 µM
CCCc1nc2oc3c(NCCN(C)C)ncnc3c2c2c1CCCC2 > 76.9 µM
Cc1c(NC(=O)CSc2nc(-c3ccco3)cc(C(F)(F)F)n2)c(=O)n(-c2ccccc2)n1C > 76.9 µM
CCOc1cc(C2/C(=C(/O)c3ccc(OC(C)C)cc3)C(=O)C(=O)N2CCCOC)ccc1O (stereo unspecified) > 76.9 µM
O=c1cc(CO)oc(CN2CCN(c3ccccc3F)CC2)c1O > 76.9 µM
NC(=O)N1CC(O)CC1C(=O)Nc1ccc(Cl)c(Cl)c1 (stereo unspecified) > 76.9 µM
Clc1ccc(-c2nnc(NC3=NCCCCC3)o2)cc1 > 76.9 µM
C=CCN1C(=O)C2(/C(=C(\O)c3ccc4c(c3)OCCO4)C(=O)C(=O)N2CCCOC)c2ccccc21 (stereo unspecified) > 76.9 µM
CCOC(=O)c1sc2nc(-c3ccco3)c3c(c2c1N)CC(C)(C)OC3
CC(C)(C)C(=O)NC1(C(F)(F)F)C(=O)Nc2c1c(=O)[nH]c(=O)n2Cc1ccco1 (stereo unspecified) > 76.9 µM
Cc1noc(C)c1S(=O)(=O)N1CCC(C(=O)Nc2ccc(OC(F)(F)F)cc2)CC1 > 76.9 µM
CCCCNC(=O)Nc1ccnn1C1CCCCC1 > 76.9 µM
CCc1cc(=O)oc2cc(OCC(=O)O)c(Cl)cc12 > 76.9 µM
O=C(COC(=O)CNC(=O)c1ccc(Br)o1)Nc1ccc2c(c1)OCCO2 > 76.9 µM
Cc1ccc(N(C(=O)CNC(=O)c2ccco2)C(C(=O)NC2CCCC2)c2cccnc2)cc1C (stereo unspecified) > 76.9 µM
Cc1ccccc1-n1nc2c(c1NC(=O)c1cc3ccccc3oc1=O)CS(=O)C2 (stereo unspecified) > 76.9 µM
CO/C=C/C#CC1(O)CCN(C)CC1 > 76.9 µM
CC1(C)CC(=O)C=C(NCC(=O)O)C1 > 76.9 µM
